{"source": "PubChem BioAssay AID1030", "about": "(National Center for Advancing Translational Sciences (NCATS), 2008)", "note": "In all, about 220,000 compounds went through this assay and about 16,000 (7.3%) were called active. The shares of active, inactive and inconclusive entries below differ from those in the screen. The call rests on the fitted dose curve; in most records, active means well fitted inhibition curve with a large enough effect (not every such curve was filed as active); inconclusive means small, poorly fitted or top-dose-only effect, or another doubt; inactive means no such curve, though single readings can be large or run the other way. Potencies of inconclusive entries are left out as doubtful fits. Potency means the concentration at half of the fitted maximal effect; tags describe the fitted curve by direction and shape."}
{"molecular_target": "Aldehyde dehydrogenase 1A1 (Homo sapiens) (UniProt P00352)", "sequence (P00352 whole entry, looked up)": "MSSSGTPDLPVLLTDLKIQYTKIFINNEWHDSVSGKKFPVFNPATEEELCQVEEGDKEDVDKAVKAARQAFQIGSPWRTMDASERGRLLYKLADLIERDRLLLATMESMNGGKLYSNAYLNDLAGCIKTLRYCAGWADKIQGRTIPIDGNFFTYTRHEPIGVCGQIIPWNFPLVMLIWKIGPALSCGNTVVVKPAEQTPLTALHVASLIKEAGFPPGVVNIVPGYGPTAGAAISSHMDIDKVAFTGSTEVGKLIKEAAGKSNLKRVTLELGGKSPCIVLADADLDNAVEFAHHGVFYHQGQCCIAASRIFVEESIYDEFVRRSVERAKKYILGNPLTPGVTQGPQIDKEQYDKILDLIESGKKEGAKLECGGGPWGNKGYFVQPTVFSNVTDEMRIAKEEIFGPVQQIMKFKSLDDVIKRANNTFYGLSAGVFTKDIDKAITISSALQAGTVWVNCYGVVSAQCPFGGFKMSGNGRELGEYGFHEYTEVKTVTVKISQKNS", "experiment": "qHTS Assay for Inhibitors of Aldehyde Dehydrogenase 1 (ALDH1A1)", "details": "Purified ALDH1A1, NADH fluorescence, propionaldehyde substrate; series mostly up to 75.3 µM"}
{"smiles": "Cc1nn(-c2ccccc2)c(Cl)c1/C=N/Nc1ccc(S(=O)(=O)Nc2ccccc2C(=O)O)cc1[N+](=O)[O-]", "Potency": "inconclusive [inhibitor, single point]"}
{"smiles": "Cc1nc2oc(C(=O)c3ccccc3)c(N)c2c2c1COC(C)(C)C2", "Potency": "active: 14.1 µM"}
{"smiles": "C/C(=N/OC(=O)c1cccc(C(F)(F)F)c1)c1cnccn1", "Potency": "inactive"}
{"smiles": "Cc1ccc(-c2nc3cc(Cl)ccc3o2)cc1", "Potency": "inconclusive [inhibitor, single point]"}
{"smiles": "COc1ccc(Sc2nc3ccccc3n3c(C(F)(F)F)nnc23)cc1", "Potency": "inactive"}
{"smiles": "CNC(=O)COC(=O)/C=C/c1ccco1", "Potency": "inconclusive [inhibitor, single point]"}
{"smiles": "O=C(NCCCN1CCOCC1)c1sc2cc(Cl)ccc2c1Cl", "Potency": "inactive"}
{"smiles": "CCCN(CCC)CCNC(=O)CCC(=O)Nc1ccc2nc(N3CCN(C)CC3)cc(C)c2c1", "Potency": "inconclusive [inhibitor, single point]"}
{"smiles": "CCCc1[nH]nc2c1C(c1cn[nH]c1-c1ccc(F)cc1)C(C#N)=C(N)O2", "note": "(stereo not drawn)", "Potency": "inconclusive [inhibitor, single point]"}
{"smiles": "COC(=O)c1c(C)[nH]c(O)c1C=Nc1ccc(C(C)C)cc1", "Potency": "inconclusive [inhibitor, single point]"}
{"smiles": "Cc1ccc2nc(SCC(=O)N3CCN(C(=O)c4ccco4)CC3)[nH]c2c1", "Potency": "inconclusive [inhibitor, single point]"}
{"smiles": "O=S1(=O)CCN2C(=N1)SC1=C2CCN(Cc2ccccc2)C1", "Potency": "inactive"}
{"smiles": "O=C(CSc1nc2ncc(Br)cc2[nH]1)c1ccc([N+](=O)[O-])cc1", "Potency": "inconclusive [inhibitor, single point]"}
{"smiles": "Cc1ccc(C(=O)O)cc1NC(=S)NC(=O)C(c1ccccc1)c1ccccc1", "Potency": "inconclusive [inhibitor, single point]"}
{"smiles": "COc1ccc(Nc2nc(CC(C)=O)ns2)cc1OC", "Potency": "inconclusive [inhibitor, partial curve]"}
{"smiles": "Cn1c(Cc2cccs2)nnc1SCC(=O)N1CCCc2ccccc21", "Potency": "inactive"}
{"smiles": "CC(C)C(O)C1CCN(Cc2nc(Cc3ccccc3Cl)no2)CC1", "note": "(stereo not drawn)", "Potency": "inactive"}
{"smiles": "Cc1ccc(/C=C/C(=O)NCc2ccccn2)o1", "Potency": "inconclusive [inhibitor, single point]"}
{"smiles": "CN(C)c1ncc2nc(CCc3ccccc3)c(=O)n(-c3ccccc3)c2n1", "Potency": "inconclusive [inhibitor, partial curve]"}
{"smiles": "O=C(Nc1ccc(N2CCCC2)c(Cl)c1)c1cccnc1", "Potency": "active: 8.91 µM"}
{"smiles": "CC(C)N1CC=C2C(C#N)=C(N)C(C#N)(C#N)C(c3ccccc3)C2C1", "note": "(stereo not drawn)", "Potency": "inconclusive [inhibitor, partial curve]"}
{"smiles": "CCCCN(CC)CCNC(=O)c1[nH]c(C)c(C(C)=O)c1C", "Potency": "active: 10 µM"}
{"smiles": "COc1ccc(S(=O)(=O)N2CCOCC2)cc1NC(=O)COc1ncnc2ccccc12", "Potency": "inconclusive [inhibitor, single point]"}
{"smiles": "Cc1cc(C)cc(NC(=S)N=Nc2c(O)n(C)c3ccc(S(=O)(=O)N4CCOCC4)cc23)c1", "Potency": "inconclusive [inhibitor, single point]"}
{"smiles": "CCOc1ccc(N2C(=O)CC(NCCNc3ccc(C(=O)c4cccs4)cc3)C2=O)cc1", "note": "(stereo not drawn)", "Potency": "active: 22.4 µM"}
{"smiles": "CC1CCCCC1NS(=O)(=O)c1ccc(S(=O)(=O)N2CCN(CCC#N)CC2)cc1", "note": "(stereo not drawn)", "Potency": "inconclusive [inhibitor, partial curve]"}
{"smiles": "O=C(C1CCN(S(=O)(=O)N2CCC3(CC2)OCCO3)CC1)N1CCC(Cc2ccccc2)CC1", "Potency": "inconclusive [inhibitor, partial curve]"}
{"smiles": "CCOC(=O)N1CCN(C(=O)Cc2ccc(Cl)cc2)CC1", "Potency": "inactive"}
{"smiles": "Nc1c(C(=O)NCc2ccccc2)sc2nc(N3CCOCC3)c3c(c12)CCCC3", "Potency": "inconclusive [inhibitor, partial curve]"}
{"smiles": "O=C(CNc1ccc2ccccc2c1)NNC1=NCCC1", "Potency": "inconclusive [inhibitor, single point]"}
{"smiles": "COc1cc(-c2cc(C(=O)Nc3ccccc3N3CCOCC3)c3ccccc3n2)cc(OC)c1OC", "Potency": "inconclusive [inhibitor, single point]"}
{"smiles": "CC(C)C1Cc2[nH]c(=O)c(C(=O)O)cc2CO1", "note": "(stereo not drawn)", "Potency": "inconclusive [inhibitor, single point]"}
{"smiles": "Cc1ccc(C(=O)N2CCN=C2SCc2ccc([N+](=O)[O-])cc2)cc1", "Potency": "inconclusive [inhibitor, single point]"}
{"smiles": "CCN(CC(=O)Nc1ccccc1OC)C(=O)COc1ccc2ccccc2c1", "Potency": "inactive"}
{"smiles": "Cc1ccc(NC(=O)NNC(=O)c2sccc2-n2cccc2)cc1", "Potency": "inconclusive [inhibitor, single point]"}
{"smiles": "CCOc1cc(/C=C/c2cc(C(F)(F)F)[nH]c(=O)n2)ccc1O", "Potency": "inactive"}
{"smiles": "C[N+](C)(C)c1ccc(/C=N/Nc2nc(Cl)c(C#N)c(Cl)c2Cl)cc1", "Potency": "active: 15.8 µM"}
{"smiles": "CCOC(=O)C1CCN(C(=O)c2ccc3c(SCC(=O)O)c4c(nc3c2)CCCC4)CC1", "Potency": "inconclusive [inhibitor, single point]"}
{"smiles": "CCOC(=O)C1=C(c2ccccc2)N=C2SCC(=O)N2C1c1cccc(OC)c1", "note": "(stereo not drawn)", "Potency": "inconclusive [inhibitor, partial curve]"}
{"smiles": "O=C(Nc1ccccc1)c1ccccc1NS(=O)(=O)c1ccc(Cl)s1", "Potency": "inactive"}
{"smiles": "Cc1[nH]c2c(C)cccc2c1CCNC(=O)C1CCCCC1C(=O)OCC(F)(F)F", "note": "(stereo not drawn)", "Potency": "inconclusive [inhibitor, partial curve]"}
{"smiles": "CCOc1cccc(C(=O)Nc2cccc(-c3nc4ncccc4o3)c2C)c1", "Potency": "active: 17.8 µM"}
{"smiles": "CC(C)C(=O)NC(c1cccs1)c1cc([N+](=O)[O-])c2cccnc2c1O", "note": "(stereo not drawn)", "Potency": "inactive"}
{"smiles": "CCCOC(=O)c1ccc(NC(=O)c2ccc(Br)o2)cc1", "Potency": "inconclusive [inhibitor, single point]"}
{"smiles": "Cc1cccc(-n2nc([N+](=O)[O-])c(N3CCN(C(=O)c4ccco4)CC3)[n+]2[O-])c1", "Potency": "inconclusive [inhibitor, single point]"}
{"smiles": "O=C(NCCc1ccccc1)C1CC(=O)N(C2CCCCCC2)C1", "note": "(stereo not drawn)", "Potency": "inconclusive [inhibitor, single point]"}
{"smiles": "CC1(C)Cc2nc3sc4c(=O)n(CC(N)=O)cnc4c3cc2CO1", "Potency": "inconclusive [inhibitor, partial curve]"}
{"smiles": "CCc1ccc(-c2cn3nc(C)c(C)nc3n2)cc1", "Potency": "active: 2.82 µM"}
{"smiles": "CCCCN=C1N/C(=C\\c2ccco2)C(=O)N1c1ccccc1", "Potency": "inconclusive [inhibitor, single point]"}
{"smiles": "CC(C)OC(=O)CSc1ncnc2c1cnn2Cc1ccccc1", "Potency": "inconclusive [inhibitor, single point]"}
{"smiles": "CCOC(=O)COc1cc(O)c2c(=O)cc(-c3ccccc3)oc2c1", "Potency": "inactive"}
{"smiles": "COC(=O)N1CCC[C@@]2(CCN(c3ccccn3)C2)C1", "Potency": "inconclusive [inhibitor, single point]"}
{"smiles": "CCOC(=O)c1sc(-c2ccccc2)cc1N", "Potency": "inconclusive [inhibitor, partial curve]"}
{"smiles": "O=C(C1CCCO1)N1CCN(S(=O)(=O)c2ccccc2)CC1", "note": "(stereo not drawn)", "Potency": "inactive"}
{"smiles": "O=C(Cc1cc(=O)[nH][nH]1)N/N=C/C(Cl)=C/c1ccccc1", "Potency": "inactive"}
{"smiles": "CCOC(=O)c1snc(-c2ccc(F)cc2)c1N", "Potency": "active: 10 µM"}
{"smiles": "OC(COc1ccc2ccccc2c1Br)Cn1cnc(-c2ccccc2)c1", "note": "(stereo not drawn)", "Potency": "inactive"}
{"smiles": "COc1ccccc1/C(O)=C(\\C#N)c1nc2ccccc2[nH]1", "Potency": "inconclusive [inhibitor, partial curve]"}
{"smiles": "C=C(C)C1CC=C(C)/C(=N/NC(=S)Nc2ccccc2)C1", "note": "(stereo not drawn)", "Potency": "active: 35.5 µM"}
{"smiles": "CO[C@@]12[C@@H](COC(N)=O)C3=C(C(=O)C(C)=C(N)C3=O)N1C[C@@H]1N[C@@H]12", "Potency": "inconclusive [inhibitor, partial curve]"}
{"smiles": "CC(C)c1ccc(/C=C/C(=O)NC2CCCCC2)cc1", "Potency": "inactive"}
{"smiles": "CCOc1ccccc1OCCCNCc1ccco1", "Potency": "inconclusive [inhibitor, single point]"}
{"smiles": "Cc1oc(-c2ccccc2Cl)nc1CSCC(=O)O", "Potency": "inactive"}
{"smiles": "COc1ccc(/C=N\\NC(=O)/C(=C\\Nc2nccc(C)n2)NC(=O)c2ccccc2)cc1", "Potency": "inconclusive [inhibitor, partial curve]"}
{"smiles": "Cc1cc(C)cc(N(C(=O)c2csnn2)C(C(=O)NC(C)(C)C)c2cccnc2)c1", "note": "(stereo not drawn)", "Potency": "inactive"}
{"smiles": "COc1ccc(NC(=O)CC2C(=O)N(C)C(=S)N2CCc2ccccc2F)cc1", "note": "(stereo not drawn)", "Potency": "active: 3.98 µM"}
{"smiles": "CCC1=NN2C(=N)/C(=C\\c3cccn3-c3ccc(Br)cc3)C(=O)N=C2S1", "Potency": "inconclusive [inhibitor, full curve]"}
{"smiles": "O=C(CCl)Nc1ccc(N=Nc2ccccc2)cc1", "Potency": "active: 0.398 µM"}
{"smiles": "CCN(CC)S(=O)(=O)c1ccc(OC)c(NC(=S)Nc2cccc(C)c2)c1", "Potency": "active: 11.2 µM"}
{"smiles": "COCCCNC(=S)N(Cc1ccccc1)Cc1ccccc1", "Potency": "inconclusive [inhibitor, partial curve]"}
{"smiles": "CC(C)(C)CC(C)(C)NC(=S)Nc1ccc2nc(-c3ccccn3)c(-c3ccccn3)nc2c1", "Potency": "inconclusive [inhibitor, single point]"}
{"smiles": "COc1cccc(C=Nc2ccc3c(c2)OCCO3)c1O", "Potency": "inconclusive [inhibitor, single point]"}
{"smiles": "CCc1nc2cc([N+](=O)[O-])c([N+](=O)[O-])cc2[nH]1", "Potency": "inactive"}
